From the supplement of paper PMC11417369
Some of the results follow.

What follows are sequences tested on PfAP2-HC AP2 domain (GST-tagged) (assay: gcPBM binding intensity (ln(normalized median fluorescence intensity)); higher = stronger DNA binding).
In short: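 GST-fused DNA-binding domains of P. falciparum, expressed in E. coli, were applied at about 25 μg on average for 1 h to an Agilent 4 × 180k array of primer-extended double-stranded 36-bp intergenic genomic probes and negative controls. Binding intensity is the highest Masliner-normalised natural-log median intensity across replicate spots of either probe orientation, measured with Alexa488 anti-GST antibody and a 488 nm scan.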

Row | Sequence | gcPBM binding intensity (ln)
1 | TAGATACCTATAGAAACATGCAATTGAATATATTTC [TGCATGCA_site402] | 9.61
2 | TTCTTACACGTTTGCACACTAAAATATATATATATA [CACACA_site434] | 9.91
3 | GTTACATACATATACACACACATATATATATATATA [CACACA_site901] | 10.2
4 | TAAATAATTCTTTTAGTACACACGAATAAGCAGATA [CACACA_site305] | 9.73
5 | AAATATTACCATGTGAAAATTTTACTGCAACATGAA [TGCATGCA_negctrl_site609] | 9.68
6 | TAAAAATTTACATGTTGTACATATAATTATATAATC [XGTACX_site4577] | 9.53
7 | AGGCTGCCATATTATACACACATTTTTAAAAAAATT [CACACA_site3843] | 9.59
8 | AAAGGATGTAATATAAACATATATATGTATATATAT [TGCATGCA_negctrl_site347] | 9.79
9 | ATAAAATGAAATATATATGTGTATGCTTAACTTGTT [CACACA_negctrl_site431] | 9.82
10 | TAATTTTTTTTAATAACACACATATATATATATATA [CACACA_site813] | 9.66
11 | ATTGTTTTATATAGAACACACATAAAAATATATATG [CACACA_site1193] | 9.76
12 | TAATATTCCTTTTTAACACACATATGAACAAATAAA [CACACA_site153] | 9.42
13 | ATATTAAACAGACACACACACATATATTTATTTATA [CACACA_site7564] | 10.4
14 | TATAGCATATCTCACACACACATAATGAATATTATA [CACACA_site5877] | 10.2
15 | AAAATGAACTCACGAGCACACACACCCATATATATA [CACACA_site8247] | 10.3
16 | TGTATTATATAAAATTGTACATGCGAATTGTATAAC [XGTACX_site902] | 9.61
17 | TATAGCTATGTATTCACACATAATATAAACTTTAAT [CACACA_site5889] | 9.63
18 | TAAAACAAAACAAAAATAGGATTATATTCCTTTTTT [CACACA_negctrl_site1003] | 9.45
19 | ATAATTTCAATATTTAATATCATATATATATATTTT [GTGCAC_negctrl_site713] | 9.63
20 | ATATATATATATATATGTACATATGTGTATATAACT [XGTACX_site495] | 9.98
21 | AAATAAAAAAATACCCAACACCATGCCAAATGTGAA [CACACA_negctrl_site411] | 10.2
22 | ACAAAATGTAAATAAACACACATATTTATATTTATA [CACACA_site6719] | 9.94

Row | Sequence | gcPBM binding intensity (ln)
23 | TTGGTGGATAAATTTACACACAATAATTTTCGTTCA [CACACA_site467] | 9.68
24 | AATAAAATATTATGTGCATGCTGTTTTATTTATTAA [TGCATGCA_site102] | 9.71
25 | AATTCACCAAAAAAAGTGCATATTCAATATATATTA | 9.5
26 | TAGTTAGGCCCTACATGTACATAATATATATTACTT [XGTACX_site1137] | 9.93
27 | ATCAACATTACATTTAGTACACATATATTTCTATGT [XGTACX_site4436] | 9.94
28 | TATATAAGTATAAAATGTACATAAAATTTTATGTTA [XGTACX_site2613] | 9.7
29 | CTAATTAATATTTGTACACACATATTTAACCTACTA [CACACA_site3191] | 9.91
30 | TAAAATTCGAAAAATTGTACTATTTATATATCTGTA [XGTACX_site6478] | 9.47
31 | AAGACACAAAAACACACACACATACATACATACATA [CACACA_site454] | 10.3
32 | TATGTTGATGATGATAGTACATATGAGTTCAAAAAA [XGTACX_site7712] | 9.64
33 | TATATTTGGAAAACATGTACATATAACAATATGTAA [XGTACX_site324] | 9.6
34 | AATAAAAAAGGAAACAAATTAATATATATATATATA [CACACA_negctrl_site467] | 9.52
35 | AAAAAAAGAAATAATAAAAAATATATATATATATAT [GTGCAC_negctrl_site702] | 9.4
36 | CGTACATAATTTTAATCACACACAAACAAACACATA [CACACA_site7947] | 10.2
37 | TGTTTTGTTGTGTATTGTACTAATATAAATATATAA [XGTACX_site1852] | 9.68
38 | TAAAAAAACGCACTCGTACACACATATTTTCTTTCT [CACACA_site3090] | 9.85
39 | TTTTATGATTGACACACACACAAAAAAAAAAAAAAA [CACACA_site7860] | 9.95
40 | TTTGAAATATATTTAGTGCATATATATTGATTATAA [GTGCAC_site9604] | 9.36
41 | ATACATATAGGATGCACACATAATTCAAATACAATA [CACACA_site651] | 10.1
42 | ATGAATATAATGAAGTGTACATAAAAATAATAAATA [XGTACX_site2481] | 9.9
43 | CAATTTTGCCCTTCCTGTACATATATTGAAAAATAT [XGTACX_site6388] | 9.36
44 | ATCTAGTACATACATACACACAACAATGTTATGAGA [CACACA_site3989] | 9.81

Row | Sequence | gcPBM binding intensity (ln)
45 | AATTATAGCTGTATCTGTACGCATTTATTTATAGAC [XGTACX_site5959] | 9.65
46 | GAAAGGGCAGGAACTATTAATACACTGATCGATAAG [CACACA_negctrl_site1458] | 9.53
47 | TTAAATAATATTAGCCGTACAATTTAAAGATAATAA [XGTACX_site8503] | 9.41
48 | TTTAATACTTTATATGCATGCAGAGAAAAATGCTTG [TGCATGCA_site286] | 9.35
49 | AAAAAAAAGTATGATTCTAAATTTATGTATATATAA [GTGCAC_negctrl_site669] | 9.48
50 | TAAAAATATAGGTATACACACATATAAATATAAATA [CACACA_site7785] | 9.94
51 | CTTATACATAAATTTTGTACACACAAAAAAAAAAAA [XGTACX_site2665] | 9.7
52 | GATTTTAAAATAATTACACACTTGATTATGTCCAAA [CACACA_site3491] | 9.67
53 | ATAAATATAAATATATGTACATATATATATATATAT [XGTACX_site7433] | 9.8
54 | TAAATATTTATAAACACACAAATATTTATATTTATA [CACACA_site6166] | 9.58
55 | AAATAGAGAAATACAAGTACATATCAAACCAATCTA [XGTACX_site2756] | 9.73
56 | TTTATTTATTAATACACACACACACGCCCACAAAAT [CACACA_site6253] | 10.5
57 | AGGGACATATATATCACACACAAAAATTAGTCCCTT [CACACA_site2778] | 10.1
58 | AAATAAATTAAAATAAATTAAATTAAATTAGCATTA [GTGCAC_negctrl_site531] | 9.52
59 | TGTATGTTATGTATATGTACATATCTTTGTATTTAT [XGTACX_site6920] | 10.2
60 | TTTTAAATAATTCGTAATTATAATTATGGAAAAAAG [CACACA_negctrl_site152] | 9.52
61 | TATTTATAAGTTTACGCATGCATATAATTATTAATA [TGCATGCA_site311] | 9.47
62 | TTTTTTTTTTTTTTTGTGCACAATTATTTCAATTTT [GTGCAC_site9884] | 9.66
63 | TAATATTTATAATAGTGTACACAATTATAAACTGAA [XGTACX_site8426] | 9.58
64 | TTTATTTTTTACCAAGTGCAATATATTATAATAATA | 9.11
65 | ACCTTATTTATTATTGCATGTGACCATCAGATGGTA [TGCATGCA_site288] | 9.62
66 | AAAGAAAAAAAATAATGTACTTATGTATTTCAGAAA [XGTACX_site3570] | 9.67

Row | Sequence | gcPBM binding intensity (ln)
67 | TTCATACATAGAAAATGTACATATATATATATATAT [XGTACX_site1895] | 9.71
68 | ATATATATGCATAATACACACATCATATAATTAACC [CACACA_site1643] | 10.2
69 | TACAAAATATTTTACACACACATATAAATACAGATA [CACACA_site5447] | 10.6
70 | AAGATATGTACTAATACACACACATATATATATATA [CACACA_site8249] | 9.9
71 | AAAAAAAAAAACAATACATGCATAATATTAATAAAA [TGCATGCA_site913] | 9.65
72 | TATCCATGCATTTACACACACACAAAAAAAAATTCT [CACACA_site4100] | 10.6
73 | ATTTTTTTTTTTAATACACACAATTTTGATGAAGCA [CACACA_site3157] | 9.56
74 | TTTCATAAGAGAAAGACACACAAATATATATTTATT [CACACA_site827] | 9.53
75 | TATAATATTTGGTGCACACAAATTAACAACTGTTTA [CACACA_site3742] | 9.75
76 | ACATTACCATATAAAACACACAAACATACATACATA [CACACA_site7709] | 10.1
77 | AATGCTATCATTAATGCACACATTTAAAATTAATAT [CACACA_site3548] | 9.67
78 | TTTAAAACCTTACATACACACAAATATATATATATA [CACACA_site677] | 10
79 | ATAATAAAAAATACAAGTACACATATTATATATATA [XGTACX_site5355] | 9.93
80 | CAAACAATTAAACAAACACACATATACAAGTATTTA [CACACA_site5177] | 9.93
81 | TTTAAGTTTTTACTTTGTACGTATTATAATAAAATC [XGTACX_site5683] | 9.58
82 | TATATTTACTTATGAAGTACATATATATATATATAT [XGTACX_site5069] | 9.67
83 | TGTTCTTTTTATACTACACACTGATAAAAAAACAAA [CACACA_site3001] | 9.46
84 | GCTTGAATAATCAATAGTACACACATATAAATATAT [XGTACX_site5964] | 9.8
85 | TTTATTTTCATATGAACACACATATTTATATTATAA [CACACA_site7165] | 10.2
86 | ATACATACATATATATGTACTTATATTTTACACATT [XGTACX_site1688] | 10.3
87 | TACAATCTAAGGAGCACACAAAAATGGATAAATATA [CACACA_site933] | 9.78
88 | TAATAAAAGAAAAAAAGTACAGACATATTGAATTTT [XGTACX_site5044] | 9.78
